Measured values published in the supplement of paper PMC8277577.
Positions count from the first letter of the chain named. Recombinant human monoclonal antibodies (heavy:light variable regions). ELISA EC50 on the named antigen, from 10 µg/ml down; lower = stronger. No active / inactive call.

B1: C846 (protein)
chain 1: QVQLVESGGGVFQPGRSLRLSCAASGFNFRTYAMHWVRQAPGKGLEWVAVILDDGSGKFYADSVKGRFTVSRDNSKHTLYLQMTSLSAEDTAIYFCARDQGTATTYFDHWGQGTLVTVSS
chain 2: DIQMTQSPSSLSASVGDRVTITCRASQSIRTFLSWYQQKAGKAPKLLIYTASSLQNGVPSRFSGSGSGTDFTLTISSLQPEDFATYYCQQSYETPPWTFGQGTKVEIK
B2: C847 (protein)
chain 1: QVQLVESGGGVVQPGGSLRLSCGASGFTFSSYAMHWVRQAPGEGLEWVAVILYDGAGKFYADSVKGRFTISRDNSKNTLYLQMNSLRAEDTAVYYCARDYGDYVTHFDYWGQGALVTVSS
chain 2: B1 chain 2 with R30S, T31S, F32Y, S34N, A40P, N56S, S76T, E93N
B3: C910 (protein)
chain 1: QVQLVQSGAAVKKPGASVKVSCKASGYTFTSYDINWVRQAPGQGLEWMGWMNPNSGNTGFAQRFQGRATLSRDTSITTAYMELTTLRSEDTAVYYCARGRANYNSKFLLDNWGQGTLVTVSS
chain 2: QSALTQPASVSGSPGQSITISCTGTSSDVGSYNLVSWYQQHPGTAPKLMIYEGSKRPSGVSDRFSGYKSGNTASLTISGLQADDEADYYCCSFAGSTTRYVFGTGTRVTVL
B4: C911 (protein)
chain 1: QVQLVESGGGVVQPGGSLRLSCAASAFTFSSYAMHWIRQSPGKGLEWVAVISSDGSSKFYADSVKGRFTISRDNSKNTLYLQMNSLSAEDTAVYYCARDLENVLIEVALQDWGQGTLVTVSS
chain 2: DIQMTQSPSSLSASVGDRVTITCRASQSINSYLNWYQQKPGKAPKLLIYAASSLHSGVPSRFSGSGSGTDFTLTISSLQPEDFATYYCQQSYTTLALTFGGGTKVEIK
B5: C914 (protein)
chain 1: QVQLQESGPGLVKPSQTLSLTCTVSGGSITSGDYYWTWIRQPPGKGLEWIGYIYYSGNTYYNLSLRSRITISEDTSKNQFSLKLRSVTAADTAVYYCARAMITFGGVIVVLDYWGQGTLVTVSS
chain 2: QSALTQPPSASGSPGQSVTISCTGTSTDVGGYNFVSWYQQHPGKAPKLMIYEVSKRPSGVPDRFSGSKSGNTASLTVSGLQAEDEADYYCSSYAGSNILYVFGTGTKVTVL
B6: C915 (protein)
chain 1: QVQLQESGPGLVKPSQTLSLTCTVSGGSISSGDYYWSWIRQPPGKGLEWIGYIYYSDSTYYNPSLRTRVTISVDTSKNQFSLKLTSVTAADTAVYYCARAMITFGGVIVLYDYWGQGTLVTVSS
chain 2: B5 chain 2 with T27S, F34Y, S54T, D62A, N97I, I98L
B7: C1024 (protein)
chain 1: QVQLVESGGGVVQPGRSLRLSCAASGFTFSDYAMHWVRQAPGKGLEWVAMISYDGNSQYYADSVKGRFTISRDNSKNTLYLQMNILRPEDTAVYYCARTFSIRIGHHDYWGQGTLVTVSS
chain 2: NFMLTQPHSVSESPGKTVTISCTGSSGSIASNYVHWYQQRPGSAPTTVIFEDNQRPSGVPDRFSGSIDSSSNSASLTISGLKTEDEADYYCQSYDSSSFWVFGGGTKLTVL
B8: C920 (protein)
chain 1: QLQLQESGPGLVKPSETLSLTCAVSGGSISNSPFYWGWIRQPPGKGLECIGSIYYSGSTYYNPSLKSRVTISVDTSKKQFSLKLSSVTAADTAVYYCARHFADGSGRVVDSWGQGILVTVSS
chain 2: EIVLTQSPATLSLSPGERATLSCRASQSVSSYLAWYQQKPGQAPSLLIYDVSNRATGIPARFSGSGSGTDFTLTISSLEPEDFAVYYCQQRINWPLYTFGQGTKLEIK
B9: C921 (protein)
chain 1: B8 chain 1 with G37A, S56T, K77T, S85R, S111Y, I116T
chain 2: B8 chain 2 with S30T, S31T, S45R, N53S, I92S
B10: C906 (protein)
chain 1: EVQLVESGGGLIKPGRSLRLSCTASGFTFGDYAMTWFRQAPGKGLEWVGFIRSKAYGGTTGYAASVKYRFTISRDDSKSIVYLQMDSLKTEDTAVYYCTRWDGWSQHDYWGQGTLVTVSS
chain 2: DIVMTQSPLSLSVTPGEPASISCRSSQSLLHSNGINYFDWYLQKPGQSPQLLIYLGSNRASGVPDRFSGSGSGTDFTLKISRVEAEDVGVYYCMQVLQIPYTFGQGTKLEI
B11: C904 (protein)
chain 1: QVQLQQWGAGLLKPSETLSLTCAVNGGSLSLYYWSWIRQSPGKGLEWIGEINHFGGSDYKPSLKSRVSISVDTSTNQFSLKLSSVTAADTAVYYCARKPLLHSNISPGAFDIWGQGTMVTVSS
chain 2: EIVLTQSPGTLSLSPGERATLSCRASQSVAGSYLAWYQQKPGQAPRLLIYGASSRATGVPDRISGSGSGTDFTLTISRLEPEDFAVYYCQQYTNTPRTFGGGTKVEI
B12: C903 (protein)
chain 1: EVQLVESGGGLIQPGGSLRLSCAASGFIVSRNYMSWVRQAPGKGLEWVSIIYSGGSTFYADSVKGRFTISRDNSKNTVYLQMNSLRAEDTAVYYCARDYGDFYFDYWGQGTLVTVSS
chain 2: EIVLTQSPGTLSLSPGERATLSCRASQSVSSSYLAWYQQKPGQAPRLLIFDVSSRATGIPDRFSGSGSGTDFTLTISRLEPEDFAVYYCQQYGSSPRTFGQGTKVEIK
B13: C918 (protein)
chain 1: QVQLVESGGGLVKPGGSLRLSCTASGFTFSDYYMTWLRQAPGKGLEWVSYISSTSPYTSYADSVKGRFTISRDNARNSVYLQMNSLRAEDTAIYYCARVPPPQRLHPFDVWGQGTMVTVSS
chain 2: DIQMTQSPSTLSASVGDRVTITCRASQSISSWLAWYQQKPGKAPKLLIYQASSLESGVPSRFSGSGSGTDFTLTISSLQPDDFATYYCQQYFRYSWTFGQGTKVEI
B14: C907 (protein)
chain 1: QVQLQESGPGLVKPSETLSLTCTVSGGSITSYYWTWIRQSPGKGLEWIGYIYYIGSTNYNPSLKSRLTISLATSKNQFSLRLNSVTAADTAVYYCASYYNDTSGYSYGLDVWGQGTTVTVSS
chain 2: DIQMTQSPSSLSAFVGDRVTITCRAGQSISSYLHWYQQKPGKAPKLLIYATSTLQSGVPSRFSGRGSGTDFTLTISGLQPEDFATYYCQQSYSTPQTFGQGTKVEIK
B15: C913 (protein)
chain 1: EVQLVESGGVVVQPGGSLRLSCAASGFTFDDYSMHWVRQVPGKGLEWIAVIFWDGTSTYYADSVKGRFTISRDNSKKSLYLQMNSLRSEDTALYYCAKDSEDCSSTSCYVDHWGQGTLVTVSS
chain 2: not shown
B16: C905 (protein)
chain 1: QVQLQESGPGLVTPSQTLSLTCSVSGGSIHSRDFYWGWIRQHPGKGLEWIGHIYYTGNTYYNPSLKSRVTISADTSKNQFSLKLSSVTAADTAVYYCARATVVITLHWFDPWGQGTLVTVSS
chain 2: NFMLTQPHSVSESPGKTVTISCTGSGGSIASNYVQWYQQRPGSAPTTVIYEDNERPSGVPDRFSGSIDSSSNSASLTISGVKTEDEADYFCQSYDVGNPVIFGGGTKLTVL
B17: C922 (protein)
chain 1: QVQLVESGGGLVKPGGSLRLSCAGSGFTFTDYYMAWIRQAPGKGLEWVSYISTSDRFINYADSVKGRFTISRDDAKNSLYLQMNSLRAEDTAVYYCARDGGGYDRFDHWGQGTLVTVSS
chain 2: DIQMTQSPSSLSASVGDRVTITCQASQDISNLLNWYQQKAGKAPKLLIYDASNLETGVPSRFSGSGSGTDFTFTISSLQPEDIATYYCLQYDNLPLTFGQGTKLEIK
B18: C908 (protein)
chain 1: EVQLVQSGAEVKKPGESLKISCKASGYSFTIYWIGWVRQMPGKGLEWMGIIYPGESETRYSPSFQGQVTISADKSISTAYLQWRSLKASDTAMYYCARGGPPGGVKLELTDYWGQGTLVTVSS
chain 2: not shown
B19: C909 (protein)
chain 1: QVQLVQSGAEVKKPGASVKVSCRASGYTFPNYDLNWVRQATGQGLEWMGWMNPNSGNTGYAQKFQGRITMTRITSISTAYMELSSLRSEDTAVYYCARGRANWNSNFLLDSWGQGTLVTVSS
chain 2: QSALTQPASVSGSPGQSITISCTGTSSDVGGYNLVSWYQQYPGNVPKLMIYEDAKRPSGVSNRFSGSKSANTASLTISGLQAEDEADYYCCSYAGSSTRYVFGTGTKVTVL
B20: C1023 (protein)
chain 1: QVQLVQSGAEMKKPGASVKISCKASGDTFTTNYFHWVRQAPGQGLEWMGIINPSAGSTTYAQRFQGRVTMTGDSSTNTVYLELRSLRSEDTAMYFCAKGSYIPAMRSSFDPWGQGTLVTVSS
chain 2: EIVLTQSPGTLSLSPGERATLSCRASQSVSHRYLAWYQQKPGQAPRLLIDGASNRATGIPDRFSGSGSGTDFTLTISRLEPEDFGVYYCQQYGSSPPFTFGQGTKLEIK

Biological target: SARS-CoV-2 Wuhan-Hu-1 spike receptor-binding domain
Assay: ELISA binding EC50; higher = weaker binding; ELISA of recombinant human antibody on coated antigen, from 10 µg/ml in fourfold dilutions; four-parameter fit.

| Binder | ELISA binding EC50 [ng/mL] |
| --- | --- |
| B1 | 3.48 |
| B2 | 3.06 |
| B3 | 2.47 |
| B4 | 2.36 |
| B5 | 1.59 |
| B6 | 3.49 |
| B7 | 2.37 |
| B8 | 2.35 |
| B9 | 3.91 |
| B10 | 1.07 |
| B11 | 3.31 |
| B12 | 2.54 |
| B13 | 1.78 |
| B14 | 3.71 |
| B15 | 2.58 |
| B16 | 3.06 |
| B17 | 2.42 |
| B18 | 1.27 |
| B19 | 3.24 |
| B20 | 1.13 |
